Where “and” joins values, the source holds several entries; their conditions need not be identical. Equal entries are not always repeated. In all, about 360,000 compounds went through this assay and about 2,600 (0.72%) were called active. Inconclusive means that the source gave no clear call. Such entries were picked first, then a sample of the others. Calls follow the shape of the dose curve; as a rule, active = well fitted inhibition curve with a large enough effect; inconclusive = small, poorly fitted or top-dose-only effect; inactive = no such curve, though single readings can be large or run the other way. A potency beside an inconclusive call is a rough fit, not a confirmed value.
Test: Primary qHTS for Inhibitors of ATXN expression; also: nearly all actives have a fitted effect of over 55% in size
Conditions: HEK-293 ATXN2-luciferase reporter, luminescence, 24 h; series mostly up to 57 µM
Summary of the method: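 ATXN2-luciferase reporter cells (luciferase flanked by upstream and downstream ATXN2 gene portions) were treated 24 h at 37 °C with compounds at up to 57 uM. SteadyGlo luminescence gave expression; GF-AFC fluorescence gave viability.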
With CCc1ccc2c(c1)NC(=O)C2(C)Cc1ccc(Cl)s1 (stereo not given) the Potency was inconclusive: 39.8 µM [inhibitor, single point].
In the case of Cc1[nH]n(C(N)=S)c(=O)c1N=Nc1cc(C(F)(F)F)ccc1Cl, the Potency was “inactive”.
With Cc1nc2cnc3ccc(C#Cc4cccnc4)cc3c2n1-c1ccc(C(C)(C)C#N)cc1 the Potency was inconclusive: 15.3 µM [inhibitor, partial curve].
With O=C(c1ccccc1Cl)n1nc(-c2ccco2)nc1NCc1cccs1 the Potency was “inactive”.
For CCOc1cc2ncc(C#N)c(Nc3ccc(F)c(Cl)c3)c2cc1NC(=O)C=CCN(C)C, the Potency was active: 21.7 µM.
For Cc1sc2nc(COC(=O)c3ccc(Cl)c(N)c3)[nH]c(=O)c2c1C, the Potency was “inactive”.
In the case of Cn1c(=O)c2cc(S(=O)(=O)NC(Cc3ccccc3)C(=O)Nc3ccc(F)cc3)ccc2n(C)c1=O (stereo not given), the Potency was “inactive”.
In the case of COc1ccc(-c2coc3cc4oc(=O)cc(-c5ccccc5)c4cc23)cc1F, the Potency was inconclusive: 25.1 µM [inhibitor, single point].
In the case of CC[C@H]1CN2CCc3cc(OC)c(OC)cc3[C@@H]2C[C@@H]1C[C@H]1NCCc2cc(OC)c(OC)cc21, the Potency was active: 1.41 µM and active: 112 nM.
For COc1ccccc1-c1cc(C(F)(F)F)nc(S(=O)(=O)CCCC(=O)N2CCOCC2)n1, the Potency was inconclusive: 39.8 µM [inhibitor, single point].
For COc1cc(C(C)=O)ccc1OCC(=O)Nc1ccc(C)c(S(=O)(=O)N2CCCCCC2)c1, the Potency was active: 28.2 µM.
For CC(=O)N1C(C)c2ccccc2C(C)(C)CC12CCCCC2 (stereo not given), the Potency was inconclusive: 10 µM [inhibitor, partial curve, poor fit].
With CC(OC(=O)C1CC(=O)N(Cc2ccco2)C1)C(=O)Nc1cccc(C#N)c1 (stereo not given) the Potency was “inactive”.
With Oc1ccc(/C=N/Nc2ccnc3cc(Cl)ccc23)cc1O the Potency was inconclusive: 39.8 µM [inhibitor, single point].
In the case of CC1Oc2ccccc2N(CC(=O)NCCc2ccccc2)C1=O (stereo not given), the Potency was “inactive”.
In the case of OCCNCc1c(OCc2ccc(Cl)cc2)ccc2ccccc12, the Potency was inconclusive: 3.16 µM [inhibitor, single point].
In the case of Cc1ccc(C(=O)Nc2ccc3c(c2)OCCO3)c(C)c1, the Potency was active: 5.01 µM.
For Cc1onc(-c2ccccc2Cl)c1C(=O)O/N=C(\N)c1ccccc1, the Potency was “inactive”.
For CC[C@]1(O)C[C@@H]2CN(CCc3c([nH]c4ccccc34)[C@@](C(=O)OC)(c3cc4c(cc3OC)N(C=O)[C@@H]3C45CCN4CC=C[C@](CC)([C@H]45)[C@@H](OC(C)=O)[C@]3(O)C(=O)OC)C2)C1 (stereo not given in full), the Potency was inconclusive: 19.3 µM [inhibitor, partial curve].
For Cn1c(SCC(=O)N/N=C/c2ccc([N+](=O)[O-])s2)nnc1-c1ccc(Cl)cc1, the Potency was inconclusive: 29.9 µM [inhibitor, partial curve, poor fit].
With Cc1cccc(NC(=S)N2CCN(c3cc(C)ccc3C)CC2)c1 the Potency was “inactive”.
With CC(C)CCC(O)(c1ccccc1)C(CN1CCOCC1)c1ccccc1 (stereo not given) the Potency was inconclusive: 37.7 µM [inhibitor, single point].
With CC[C@H](C)[C@@H]1NC(=O)[C@@H](CC(C)C)NC(=O)[C@H](C(C)C)NC(=O)[C@H]2CSSC[C@H](NC1=O)C(=O)N2 the Potency was active: 0.794 µM.
In the case of Cc1ccc(C2(C)NC(=O)N(CC(=O)Nc3nc(-c4ccccn4)cs3)C2=O)cc1 (stereo not given), the Potency was inconclusive: 28.2 µM [inhibitor, single point].
For Cc1ccc(C(NC(=O)Nc2ccccn2)C(Cl)(Cl)Cl)cc1F (stereo not given), the Potency was “inactive”.
In the case of Cc1ccc(NC(=O)C2CCCN(c3nnc(C)c4c(C)n(-c5ccccc5)nc34)C2)c(Cl)c1 (stereo not given), the Potency was inconclusive: 7.08 µM [inhibitor, single point].
For Cc1ccc(S(=O)(=O)Cc2ccc(C(=O)N3CCN(c4cccc(C)c4C)CC3)o2)cc1, the Potency was inconclusive: 17.8 µM [inhibitor, partial curve, poor fit].
With c1ccc(CNCCCNCCCCNCCCNCc2ccccc2)cc1 the Potency was active: 28.2 µM.
In the case of CCOC(=O)c1c(NC(=O)CSc2c[nH]c3ccccc23)sc2c1CCC2, the Potency was inconclusive: 37.7 µM [inhibitor, single point].
For CC(=O)c1cccc(NC(=O)/C=C/c2ccc([N+](=O)[O-])s2)c1, the Potency was inconclusive: 6.7 µM [inhibitor, full curve, poor fit].
With COc1ccc(N=C2S/C(=C\c3ccc(OCC(=O)O)cc3)C(=O)N2CCc2c[nH]c3ccccc23)cc1 the Potency was “inactive”.
With CN(C)c1ccc(/C=C2\CCC/C(=C\c3ccccc3)C2=O)cc1 the Potency was “inactive”.
In the case of O=S(=O)(O)c1ccc(N=Nc2ccccc2)cc1, the Potency was “inactive”.
In the case of CCc1nc2ccc(C(=O)Nc3ccc(OC)c(OC)c3)cn2c1N(CC)Cc1cccc(Br)c1, the Potency was inconclusive: 35.5 µM [inhibitor, single point].
For CCOC(=O)C(=O)N(C)c1c(CC)nc2c(OCc3cccc(OC)c3)cccn12, the Potency was “inactive”.
With CCCCCC(=O)N1C[C@@H](O)[C@H](n2cc(-c3ccc(F)cc3)nn2)C[C@@H]1c1ccc(Cl)cc1 the Potency was inconclusive: 39.8 µM [inhibitor, single point].
For CC1(C)Cc2cccc(OCC(=O)NCc3ccccc3F)c2O1, the Potency was “inactive”.
With N#CC1c2ccccc2C=CN1C(=O)N(c1ccccc1)c1ccccc1 (stereo not given) the Potency was inconclusive: 35.5 µM [inhibitor, single point].
With CC(C)(C)NC(=O)c1cc([N+](=O)[O-])ccc1N1CCCCC1 the Potency was “inactive”.
With Cc1c2cnn(-c3ccccc3)c(=O)c2c(C)n1CC(=O)NCCc1ccc(Cl)cc1 the Potency was “inactive”.
For Cc1ccc(NC(=O)ON=C2CCCC2)cc1, the Potency was “inactive”.
With COc1ccc(/C=C/C(=O)Oc2ccc(C)cc2)cc1 the Potency was inconclusive: 28.2 µM [inhibitor, partial curve, poor fit].
In the case of COCc1cc(C)nc(N2CCN(c3ccccc3)CC2)c1C#N, the Potency was “inactive”.
With Nc1c(C(=O)Nc2nc3ccccc3s2)sc2nc(-c3cccs3)ccc12 the Potency was inconclusive: 35.5 µM [inhibitor, single point].
With CC1(C(=O)O)CCCN(C(=O)c2ccc(OC(F)F)cc2)C1 (stereo not given) the Potency was “inactive”.
Potency is read from the fitted curve at half-maximal effect; tags tell the direction and shape of the fitted curve.
